Reference: PubChem BioAssay AID686978 (National Center for Advancing Translational Sciences (NCATS), 2013)
The whole screen tested about 420,000 compounds, of which about 64,000 (15%) were called active. This list was built around the results that the source calls inconclusive (neither active nor inactive); the mix of calls is not that of the screen. The call rests on the fitted dose curve; in most records, active means well fitted inhibition curve with a large enough effect; inconclusive means small, poorly fitted or top-dose-only effect; inactive means flat fitted curve, though single readings scatter. Potencies of inconclusive entries are left out as doubtful fits.

Assay: qHTS for Inhibitors of human tyrosyl-DNA phosphodiesterase 1 (TDP1): qHTS in cells in absence of CPT; further: nearly all actives have a fitted effect of over 55% in size
Details: DT40 Tdp1-/- hTDP1 cells, no CPT, ATP luminescence, 48 h; activity change, negative = growth inhibition: at 46.2 µM (top of the series) unless noted
Summary of the method: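 Chicken DT40 Tdp1-/- cells complemented with human TDP1, screened without camptothecin (DMSO vehicle only), 400 cells/well. Compounds pin-transferred, cells incubated at 37 °C for at least 48 hr. Growth read as ATP-dependent luminescence (CellTiter-Glo, 30 min at RT).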
On the % scale 0 is the no-effect control and ±100 the full control effect; potency means the concentration at half of the fitted maximal effect; tags describe the fitted curve by direction and shape.

Row | Structure (SMILES) | Potency | activity change, negative = growth inhibition
1 | CCCCOc1ccc(C(C)(O)CCN2CCOCC2)cc1 (stereo not given) | inactive | 
2 | O=C(N[C@H](Cc1ccc(Cl)cc1)C(=O)O)OCC1c2ccccc2-c2ccccc21 |  | inconclusive: -15.3% [inhibitor]
3 | COCC1CCN(C(=O)CCc2nnc(CCCCc3ccccc3)o2)CC1 | inconclusive [inhibitor, single point] | 
4 | CN=C1SC(CC(=O)NCCc2ccc(OC)c(OC)c2)C(=O)N1C (stereo not given) | inconclusive [inhibitor, single point] | 
5 | O=C(Nc1ccccc1Br)C1CCCN(S(=O)(=O)c2cccc3nsnc23)C1 (stereo not given) | inconclusive [inhibitor, single point] | 
6 | CC1=NN(c2ccc(Cl)c(C(=O)O)c2)C(=O)/C1=C/c1ccc(-c2ccccc2[N+](=O)[O-])o1 | inactive | 
7 | COC(=O)C1CCN(CC(=O)Nc2ccc(C(=O)Nc3ccccc3OC)cc2)CC1 | inconclusive [inhibitor, single point] | 
8 | CCNC(=O)CCc1nc(-c2ccc(C)cc2)no1 | inactive | 
9 | CCc1ccc(OCC(=O)N(Cc2ccc(Cl)cc2)C2CCS(=O)(=O)C2)cc1 (stereo not given) | inconclusive [inhibitor, single point] | 
10 | CSc1nc2n(n1)C(C)C1=C(CCCC1=O)N2 (stereo not given) | inactive | 
11 | O=C(CN1CCN(c2ccc(Cl)cc2)CC1)NCc1ccccc1 | inconclusive [inhibitor, single point] | 
12 | CC(=O)C1C(=O)c2c(cccc2[N+](=O)[O-])C1=Nc1ccc(S(N)(=O)=O)cc1 (stereo not given) | inconclusive [inhibitor, partial curve] | 
13 | Cc1cccc(OCC(O)CN2CCN(S(=O)(=O)c3ccc(C)cc3C)CC2)c1 (stereo not given) | inconclusive [inhibitor, single point] | 
14 | CC(NC(=O)c1ccccc1)C(=O)NC1=NCCS1 (stereo not given) | inactive | 
15 | OC[C@@H]1CN(Cc2ccccc2)C[C@H](n2cnc3c(N4CCN(c5ccccc5)CC4)ncnc32)O1 | inconclusive [inhibitor, single point] | 
16 | CCc1c(C)sc2nc3c(C(=O)N4CCOCC4)cc(C(=O)c4ccccc4O)cn3c(=O)c12 | active: 14.6 µM | 
17 | Cc1ccc2[nH]c(O)c(N=Nc3ccccc3C)c2c1 | inconclusive [inhibitor, single point] | 
18 | Cc1ccnn1C(C)C(=O)O (stereo not given) | inactive | 
19 | CCOC(=O)c1c(CN2CCC(C)CC2)oc2ccc(OC)cc12 | inconclusive [inhibitor, single point] | 
20 | Cc1ccc(/C=C2\CC(C)CC3=C2NC(=S)NC3c2ccc(C)cc2)cc1 (stereo not given) | active: 14.6 µM | 
